We go through five molecules from publication PMC7442955, “Biochemical and functional characterization of a meiosis-specific Pch2/ORC AAA+ assembly” (Life Science Alliance, 2020).

Assay [1] concerns the target T1, Orc1 (yeast two-hybrid fusion) (budding yeast) (UniProt P54784).
T1 sequence: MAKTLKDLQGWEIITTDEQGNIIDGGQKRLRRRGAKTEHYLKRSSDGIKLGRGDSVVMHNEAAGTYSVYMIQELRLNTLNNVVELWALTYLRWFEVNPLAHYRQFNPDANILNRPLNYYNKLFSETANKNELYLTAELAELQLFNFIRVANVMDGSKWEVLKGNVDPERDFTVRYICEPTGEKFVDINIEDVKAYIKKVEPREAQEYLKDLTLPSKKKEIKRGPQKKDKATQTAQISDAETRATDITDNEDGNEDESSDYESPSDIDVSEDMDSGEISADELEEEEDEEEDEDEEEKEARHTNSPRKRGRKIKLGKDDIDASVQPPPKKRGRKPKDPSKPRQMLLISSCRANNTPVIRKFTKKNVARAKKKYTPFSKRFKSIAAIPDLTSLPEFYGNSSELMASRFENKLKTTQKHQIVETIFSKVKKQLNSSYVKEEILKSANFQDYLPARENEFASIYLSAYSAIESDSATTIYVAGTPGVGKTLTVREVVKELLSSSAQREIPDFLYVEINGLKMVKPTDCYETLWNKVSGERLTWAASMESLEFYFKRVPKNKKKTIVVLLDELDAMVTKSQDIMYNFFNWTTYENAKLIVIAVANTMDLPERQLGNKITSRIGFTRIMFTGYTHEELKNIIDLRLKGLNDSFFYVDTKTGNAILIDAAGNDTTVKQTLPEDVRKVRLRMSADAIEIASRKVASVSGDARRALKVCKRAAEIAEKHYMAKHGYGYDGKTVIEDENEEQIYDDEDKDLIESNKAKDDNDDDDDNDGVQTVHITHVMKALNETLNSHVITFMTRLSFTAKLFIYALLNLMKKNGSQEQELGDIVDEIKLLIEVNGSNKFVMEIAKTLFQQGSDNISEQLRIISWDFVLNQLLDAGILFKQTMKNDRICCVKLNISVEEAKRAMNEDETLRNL
Kind of assay: two-hybrid; bait and prey in pGBDU-C1 or pGAD-C1, reporter strain yGV864; spot assay on -Ura-Leu-His plates, 2–4 d.

Assay [2] deals with T2, His–Orc1 (subunit of the insect cell–purified ORC) (budding yeast), P54784.
T2 chain: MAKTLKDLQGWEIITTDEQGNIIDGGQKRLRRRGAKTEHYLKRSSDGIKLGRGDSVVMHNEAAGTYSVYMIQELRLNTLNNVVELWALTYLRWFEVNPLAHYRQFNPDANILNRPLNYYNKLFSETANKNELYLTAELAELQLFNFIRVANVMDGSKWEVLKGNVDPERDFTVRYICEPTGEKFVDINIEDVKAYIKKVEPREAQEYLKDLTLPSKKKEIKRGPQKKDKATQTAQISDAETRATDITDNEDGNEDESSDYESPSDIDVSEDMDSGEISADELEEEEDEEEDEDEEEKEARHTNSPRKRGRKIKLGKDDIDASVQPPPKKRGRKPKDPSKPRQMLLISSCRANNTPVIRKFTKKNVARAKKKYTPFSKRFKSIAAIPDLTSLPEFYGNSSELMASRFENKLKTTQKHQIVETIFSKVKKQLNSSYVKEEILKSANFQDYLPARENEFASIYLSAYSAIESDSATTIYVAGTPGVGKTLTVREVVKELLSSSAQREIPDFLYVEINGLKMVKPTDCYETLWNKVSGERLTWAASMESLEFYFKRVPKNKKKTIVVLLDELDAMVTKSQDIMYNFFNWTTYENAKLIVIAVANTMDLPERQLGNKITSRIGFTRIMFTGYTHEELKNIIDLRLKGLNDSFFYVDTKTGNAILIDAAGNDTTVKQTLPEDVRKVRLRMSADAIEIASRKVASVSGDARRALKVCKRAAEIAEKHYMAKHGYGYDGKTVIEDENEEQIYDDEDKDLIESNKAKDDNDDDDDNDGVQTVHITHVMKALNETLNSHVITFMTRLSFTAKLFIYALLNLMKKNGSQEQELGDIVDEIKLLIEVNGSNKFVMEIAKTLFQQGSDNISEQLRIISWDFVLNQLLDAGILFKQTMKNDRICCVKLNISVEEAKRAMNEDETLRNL
Kind of assay: cross-linking; XL-MS: 0.75 μM His–MBP–Pch2 with 1.5 μM His–ORC, 30 mM HEPES pH 7.5, 150 mM NaCl, 2 mM TCEP, 90 min at 4°C; 3 mM DSBU, 25°C, 1 h; MeroX, 2% FDR; both purified. Conditions: remark: other sources report otherwise.

In the next assay the target is T3, Orc1–TAP (budding yeast) (UniProt P54784).
T3 sequence: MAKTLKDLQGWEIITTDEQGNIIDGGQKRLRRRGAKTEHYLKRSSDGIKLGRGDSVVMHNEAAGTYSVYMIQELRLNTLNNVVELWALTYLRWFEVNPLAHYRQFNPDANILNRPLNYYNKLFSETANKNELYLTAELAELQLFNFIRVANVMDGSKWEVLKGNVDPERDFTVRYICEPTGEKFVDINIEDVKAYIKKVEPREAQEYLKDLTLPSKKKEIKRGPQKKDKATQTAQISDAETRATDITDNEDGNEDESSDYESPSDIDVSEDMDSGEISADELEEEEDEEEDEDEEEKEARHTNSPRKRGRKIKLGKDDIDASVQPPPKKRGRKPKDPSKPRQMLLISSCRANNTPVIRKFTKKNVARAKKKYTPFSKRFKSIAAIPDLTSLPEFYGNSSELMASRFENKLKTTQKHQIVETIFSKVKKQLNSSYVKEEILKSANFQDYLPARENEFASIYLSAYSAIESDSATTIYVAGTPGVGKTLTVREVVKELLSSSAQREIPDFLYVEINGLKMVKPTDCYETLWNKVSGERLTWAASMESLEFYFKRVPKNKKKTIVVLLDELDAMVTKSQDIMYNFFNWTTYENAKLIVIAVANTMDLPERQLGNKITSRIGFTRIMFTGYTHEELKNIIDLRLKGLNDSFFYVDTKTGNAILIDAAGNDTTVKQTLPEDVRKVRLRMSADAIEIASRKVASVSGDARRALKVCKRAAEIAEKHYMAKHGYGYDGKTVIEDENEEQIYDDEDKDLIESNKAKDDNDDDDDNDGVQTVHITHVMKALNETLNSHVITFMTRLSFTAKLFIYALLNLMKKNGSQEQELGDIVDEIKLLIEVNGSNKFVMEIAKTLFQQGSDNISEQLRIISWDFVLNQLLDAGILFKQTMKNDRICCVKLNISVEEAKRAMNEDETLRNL
Kind of assay: co-IP; α-TAP IP (Dynabeads protein G) from lysates of meiotic prophase cells (4-5 h into the meiotic program); IP buffer 50 mM Tris–HCl pH 7.5, 150 mM NaCl, 1% Triton X-100, 1 mM EDTA; also with Benzonase, in ORC1 or orc1-161 backgrounds at 23°C, and in orc2–FRB cells with rapamycin or DMSO.

No constants are given. Whether binding was seen depends on the method and setting. For some assays here: Binding seen in cells or lysates may run through a third protein. Some results given as binding are weak or reduced against the parent protein; the word gives no strength. Tags and fused reporters may be left off the sequences shown.

B1: Pch2 2-91 (yeast two-hybrid fusion) (domain or fragment, UniProt P38126 2-91)
chain: SYIVDLQVRGSSLRVIKCMFREDEQISSLHSGSDSKQNSNKKLGEFLNLLKAVVKRKLESFPKDRLKTSIITGQELMREGQGSIEIKDPP
In the case of B1, the binding result in assay [1] was “no binding”.

B2: Orc2 (subunit of the insect cell–purified ORC), P32833 1-620 (protein)
chain: MLNGEDFVEHNDILSSPAKSRNVTPKRVDPHGERQLRRIHSSKKNLLERISLVGNERKNTSPDPALKPKTPSKAPRKRGRPRKIQEELTDRIKKDEKDTISSKKKRKLDKDTSGNVNEESKTSNNKQVMEKTGIKEKREREKIQVATTTYEDNVTPQTDDNFVSNSPEPPEPATPSKKSLTTNHDFTSPLKQIIMNNLKEYKDSTSPGKLTLSRNFTPTPVPKNKKLYQTSETKSASSFLDTFEGYFDQRKIVRTNAKSRHTMSMAPDVTREEFSLVSNFFNENFQKRPRQKLFEIQKKMFPQYWFELTQGFSLLFYGVGSKRNFLEEFAIDYLSPKIAYSQLAYENELQQNKPVNSIPCLILNGYNPSCNYRDVFKEITDLLVPAELTRSETKYWGNHVILQIQKMIDFYKNQPLDIKLILVVHNLDGPSIRKNTFQTMLSFLSVIRQIAIVASTDHIYAPLLWDNMKAQNYNFVFHDISNFEPSTVESTFQDVMKMGKSDTSSGAEGAKYVLQSLTVNSKKMYKLLIETQMQNMGNLSANTGPKRGTQRTGVELKLFNHLCAADFIASNEIALRSMLREFIEHKMANITKNNSGMEIIWVPYTYAELEKLLKTVLNTL
Take B2: in assay [2], the binding result is on record as “binds”.

B3: Pch2 (wild type, expressed in meiotic cells) (protein, UniProt P38126 1-564)
chain: MSYIVDLQVRGSSLRVIKCMFREDEQISSLHSGSDSKQNSNKKLGEFLNLLKAVVKRKLESFPKDRLKTSIITGQELMREGQGSIEIKDPPTEAQQHLIRSLAKVLLHQFSSINGKVNTVNEGQDNLFLSLFVKKISIEQQSTSHVSIKLNFHEKINLGQHIDSILDSEETNESDTYHMGSVDEFIIYPFCCLEEQDELKNGSILSTEFDKIDLELDEDDGFEGETLNNCINSVGNFDIPLSKQTLNLVNISYLPGTTFEGQWESLYFGNNIKERLYSYATISLKIARFKQTGDSNQEDITTLITNNKLLLVHGPPGTGKTTLCKALCQKLSVRREFSDGSDTIDTNYKGIIIELSCARIFSKWFGESSKNISIVFKDIEELLKVNEGRGIFICLLIDEVEAIASSRTNLSSRNESTDGIRVVNTLLTQLDRLKKYHNFLALATSNLLDSLDDAFVDRADGVFYVGNPTAEGILHILKVCIEEMITSGIILFHARSTGVKFFNKYQDILRKIAIKCSTVDISGRTIRKLPLMCLSEYFRTFPVDDDEFVLALAMSARKLSAARK
Turning to B3, the binding entry with Orc1–TAP (budding yeast) is listed as “binds”.

B4: 3xFlag-Pch2 (protein, UniProt P38126 1-564)
chain: MSYIVDLQVRGSSLRVIKCMFREDEQISSLHSGSDSKQNSNKKLGEFLNLLKAVVKRKLESFPKDRLKTSIITGQELMREGQGSIEIKDPPTEAQQHLIRSLAKVLLHQFSSINGKVNTVNEGQDNLFLSLFVKKISIEQQSTSHVSIKLNFHEKINLGQHIDSILDSEETNESDTYHMGSVDEFIIYPFCCLEEQDELKNGSILSTEFDKIDLELDEDDGFEGETLNNCINSVGNFDIPLSKQTLNLVNISYLPGTTFEGQWESLYFGNNIKERLYSYATISLKIARFKQTGDSNQEDITTLITNNKLLLVHGPPGTGKTTLCKALCQKLSVRREFSDGSDTIDTNYKGIIIELSCARIFSKWFGESSKNISIVFKDIEELLKVNEGRGIFICLLIDEVEAIASSRTNLSSRNESTDGIRVVNTLLTQLDRLKKYHNFLALATSNLLDSLDDAFVDRADGVFYVGNPTAEGILHILKVCIEEMITSGIILFHARSTGVKFFNKYQDILRKIAIKCSTVDISGRTIRKLPLMCLSEYFRTFPVDDDEFVLALAMSARKLSAARK
With B4, the binding result in the assay with Orc1–TAP (budding yeast) is “binds”.

B5: Pch2 2-144 (yeast two-hybrid fusion) (domain or fragment, UniProt P38126 2-144)
chain: SYIVDLQVRGSSLRVIKCMFREDEQISSLHSGSDSKQNSNKKLGEFLNLLKAVVKRKLESFPKDRLKTSIITGQELMREGQGSIEIKDPPTEAQQHLIRSLAKVLLHQFSSINGKVNTVNEGQDNLFLSLFVKKISIEQQSTS
With B5, the binding result in assay [1] was “binds”.
